The record followed here is patent WO2012132067A1.

Experiment [1] addresses human FcγRIIa(R) (human) (UniProt P12318). As to the kind of experiment: Biacore T100, Protein A capture, 25 C; against IgG1 (IL6R-G1d). On the technique in general: In SPR one partner is held on a chip, and binding of the other changes the refractive index at the surface.
In experiment [2] the target is human FcγRIIb (human) (UniProt P31994). The experiment is described as above.
The target of experiment [3] is human FcγRIIa(H) (human) (UniProt P12318). Kind of experiment: Biacore T100, Protein A capture, FcγR at 2 μmol/L, 25 C.
Experiment [4] addresses FcγRIIIa (allotype not stated, Example 13) (human) (UniProt P08637). The experiment is described as above.
Experiment [5] addresses human FcγRIIa(H) (human) (UniProt P12318). Kind of experiment: Biacore T100, Protein A capture, 25 C; KD by the steady-state formula; against IgG1 (IL6R-G1d).
In experiment [6] the target is FcγRIIIa (allotype not stated, Example 13) (human) (UniProt P08637). The description is as above.
Experiment [7] addresses human FcγRIa (human) (UniProt P12314). As to the kind of experiment: Biacore T100, Protein A capture, 25 C; against IgG1 (IL6R-G1d).
Chain of UniProt P12314 (P12314 16-292 limits assumed): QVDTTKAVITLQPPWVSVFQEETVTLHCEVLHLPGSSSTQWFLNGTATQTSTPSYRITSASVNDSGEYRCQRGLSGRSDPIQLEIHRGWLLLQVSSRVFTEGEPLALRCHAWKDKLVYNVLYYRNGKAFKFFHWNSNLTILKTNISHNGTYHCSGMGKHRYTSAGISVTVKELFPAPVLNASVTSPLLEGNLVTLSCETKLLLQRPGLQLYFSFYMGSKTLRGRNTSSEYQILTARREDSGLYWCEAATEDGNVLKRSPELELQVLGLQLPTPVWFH

Chain of UniProt P08637 (P08637 other isoform, or with tags, fused parts or gaps limits assumed): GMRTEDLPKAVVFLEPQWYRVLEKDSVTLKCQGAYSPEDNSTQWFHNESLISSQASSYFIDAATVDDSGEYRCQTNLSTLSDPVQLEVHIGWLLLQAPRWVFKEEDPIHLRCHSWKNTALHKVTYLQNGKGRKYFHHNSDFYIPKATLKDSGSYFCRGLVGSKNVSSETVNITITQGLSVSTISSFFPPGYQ
Chain of UniProt P31994 (P31994 43-217 limits assumed): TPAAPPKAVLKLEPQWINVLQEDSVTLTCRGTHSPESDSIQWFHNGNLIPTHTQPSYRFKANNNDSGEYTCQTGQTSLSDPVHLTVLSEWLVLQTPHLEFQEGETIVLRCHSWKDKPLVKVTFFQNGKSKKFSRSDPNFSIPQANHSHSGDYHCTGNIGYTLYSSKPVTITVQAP

B1: IgG1-v2 (IL6R-G1d_v2/IL6R-L) (antibody)
heavy: QVQLQESGPGLVKPSETLSLTCAVSGHSISHDHAWSWVRQPPGEGLEWIGFISYSGITNYNPSLQGRVTISRDNSKNTLYLQMNSLRAEDTAVYYCARSLARTTAMDYWGEGTLVTVSS[… human IgG1 constant region with L328E (EU numbers) …]
light: DIQMTQSPSSLSASVGDRVTITCRASQDISSYLNWYQQKPGKAPKLLIYYTSRLHSGVPSRFSGSGSGTDFTFTISSLQPEDIATYYCQQGNTLPYTFGQGTKVEIK
Turning to B1, the relative KD (KD of IgG1 divided by KD of the variant) turned out to be 0.41 fold in experiment [1], 2.3 fold in experiment [2], 0.064 fold in experiment [5] and 0.14 fold in experiment [6]. For the same molecule, the binding response (Req) is 10 RU in experiment [3] and 5 RU in experiment [4].

B2: IgG1-v1 (IL6R-G1d_v1/IL6R-L) (antibody)
heavy: QVQLQESGPGLVKPSETLSLTCAVSGHSISHDHAWSWVRQPPGEGLEWIGFISYSGITNYNPSLQGRVTISRDNSKNTLYLQMNSLRAEDTAVYYCARSLARTTAMDYWGEGTLVTVSS[… human IgG1 constant region with P238D (EU numbers) …]
light: DIQMTQSPSSLSASVGDRVTITCRASQDISSYLNWYQQKPGKAPKLLIYYTSRLHSGVPSRFSGSGSGTDFTFTISSLQPEDIATYYCQQGNTLPYTFGQGTKVEIK
On to B2, for which the relative KD (KD of IgG1 divided by KD of the variant) in experiment [7] was 0.047 fold; in experiment [1], 0.1 fold; in experiment [2], 4.8 fold; in experiment [5], 0.014 fold; in experiment [6], 0.061 fold. Moreover, the binding response (Req) in experiment [3] and in experiment [4] was 2.5 RU throughout.
